Laboratory results: patent US20260092096A1 (35PHARMA, published 2026)
Blank lines part the entries; values can stand above or below the binder they belong to.

Columns and labels:
Assay in all cases: cell-based or functional assay
activin A = target: T1, activin A (human, UniProt P08476 311-426)
T1 sequence (looked up): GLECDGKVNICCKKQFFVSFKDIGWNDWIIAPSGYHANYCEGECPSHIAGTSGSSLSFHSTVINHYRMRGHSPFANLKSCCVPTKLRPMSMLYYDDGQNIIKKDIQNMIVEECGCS

activin B = target: T2, activin B (UniProt P09529 293-407)
T2 sequence (looked up): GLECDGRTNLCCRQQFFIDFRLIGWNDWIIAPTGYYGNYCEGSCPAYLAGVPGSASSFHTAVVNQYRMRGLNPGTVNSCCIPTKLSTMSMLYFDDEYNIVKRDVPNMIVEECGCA

GDF-8 = target: T3, GDF-8 (UniProt O14793 267-375)
T3 sequence (looked up): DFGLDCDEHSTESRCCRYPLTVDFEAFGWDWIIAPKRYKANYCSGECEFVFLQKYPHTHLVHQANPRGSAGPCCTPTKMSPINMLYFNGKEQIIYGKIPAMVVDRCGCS

GDF-11 = target: T4, GDF-11 (UniProt O95390 299-407)
T4 sequence (looked up): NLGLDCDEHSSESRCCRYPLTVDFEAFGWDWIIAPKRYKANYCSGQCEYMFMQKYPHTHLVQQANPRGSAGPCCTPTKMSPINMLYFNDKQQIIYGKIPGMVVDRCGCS

BMP-9 [1] = target: T5, BMP-9 (UniProt Q9UK05 320-429)
T5 sequence (looked up): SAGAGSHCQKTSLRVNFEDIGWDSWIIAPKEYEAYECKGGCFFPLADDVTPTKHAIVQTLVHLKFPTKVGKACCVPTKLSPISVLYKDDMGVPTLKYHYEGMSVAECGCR

BMP-10 = target: T6, BMP-10 (UniProt O95393 317-424)
T6 sequence (looked up): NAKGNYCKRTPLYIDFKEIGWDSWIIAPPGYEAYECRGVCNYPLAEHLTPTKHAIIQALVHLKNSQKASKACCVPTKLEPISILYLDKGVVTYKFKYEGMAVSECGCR

BMP-9 [2] = target: T5, BMP-9; remark: listed apart in the source

IC50, TGFβ-reporter HEK293 cell-based neutralization assay (activin A): 2.3 nM
IC50, TGFβ-reporter HEK293 cell-based neutralization assay (activin B): 1.4 nM
IC50, TGFβ-reporter HEK293 cell-based neutralization assay (GDF-8): 0.67 nM
IC50, TGFβ-reporter HEK293 cell-based neutralization assay (GDF-11): 0.75 nM
IC50, BMP-reporter HepG2 cell-based neutralization assay (BMP-9 [1]): 3 nM
IC50, BMP-reporter HepG2 cell-based neutralization assay (BMP-10): 2 nM
B1: P75 (wild type human ActRIIB-ECD-Fc) (Fc fusion)
chain: ETRECIYYNANWELERTNQSGLERCEGEQDKRLHCYASWRNSSGTIELVKKGCWLDDFNCYDRQECVATEENPQVYFCCCEGNFCNERFTHLPEAGGPEVTYEPPPTG[human IgG1 Fc and a few adjoining residues left out]

IC50, TGFβ-reporter HEK293 cell-based neutralization assay (activin A): 0.85 nM
IC50, TGFβ-reporter HEK293 cell-based neutralization assay (activin B): 7.7 nM
IC50, TGFβ-reporter HEK293 cell-based neutralization assay (GDF-8): 0.37 nM
IC50, TGFβ-reporter HEK293 cell-based neutralization assay (GDF-11): 0.46 nM
IC50, BMP-reporter HepG2 cell-based neutralization assay (BMP-9 [1]): 265 nM
IC50, BMP-reporter HepG2 cell-based neutralization assay (BMP-10): 2.4 nM
B4: P1182 (hActRIIB L33Y G27D, 14 aa linker, IgG1-DL) (Fc fusion)
chain: ETRECIYYNANWELERTNQSGLERCEDEQDKRYHCYASWRNSSGTIELVKKGCWLDDFNCYDRQECVATEENPQVYFCCCEGNFCNERFTHLPEAGGPEVTYEPPPTGGGGSGGGGSGG[human IgG1 Fc and a few adjoining residues left out]

fold lower BMP-9 neutralization potency than P75 (BMP-9 [2]): > 100 fold
IC50, TGFβ-reporter HEK293 cell-based neutralization assay (activin A): 0.7 nM
IC50, TGFβ-reporter HEK293 cell-based neutralization assay (activin B): 1.8 nM
IC50, TGFβ-reporter HEK293 cell-based neutralization assay (GDF-8): 0.33 nM
IC50, TGFβ-reporter HEK293 cell-based neutralization assay (GDF-11): 0.39 nM
IC50, BMP-reporter HepG2 cell-based neutralization assay (BMP-9 [1]): > 1000 nM
IC50, BMP-reporter HepG2 cell-based neutralization assay (BMP-10): > 100 nM
B6: P1229 (hActRIIB L33W, 14 aa linker, IgG1-DL) (Fc fusion)
chain: ETRECIYYNANWELERTNQSGLERCEGEQDKRWHCYASWRNSSGTIELVKKGCWLDDFNCYDRQECVATEENPQVYFCCCEGNFCNERFTHLPEAGGPEVTYEPPPTGGGGSGGGGSGG[human IgG1 Fc and a few adjoining residues left out]

IC50, TGFβ-reporter HEK293 cell-based neutralization assay (activin A): 0.53 nM
IC50, TGFβ-reporter HEK293 cell-based neutralization assay (activin B): 1.9 nM
IC50, TGFβ-reporter HEK293 cell-based neutralization assay (GDF-8): 0.37 nM
IC50, TGFβ-reporter HEK293 cell-based neutralization assay (GDF-11): 0.4 nM
B8: P1374 (hActRIIB L33W, 19 aa linker, IgG1 Y-DL) (Fc fusion)
chain: ETRECIYYNANWELERTNQSGLERCEGEQDKRWHCYASWRNSSGTIELVKKGCWLDDFNCYDRQECVATEENPQVYFCCCEGNFCNERFTHLPEAGGPEVTYEPPPTGGGGSGGGGSGGGGSGGGG[human IgG1 Fc with changes left out]

IC50, TGFβ-reporter HEK293 cell-based neutralization assay (activin A): 1.7 nM
IC50, TGFβ-reporter HEK293 cell-based neutralization assay (activin B): > 20 nM
IC50, TGFβ-reporter HEK293 cell-based neutralization assay (GDF-8): 0.33 nM
IC50, TGFβ-reporter HEK293 cell-based neutralization assay (GDF-11): 0.37 nM
IC50, BMP-reporter HepG2 cell-based neutralization assay (BMP-9 [1]): > 1000 nM
IC50, BMP-reporter HepG2 cell-based neutralization assay (BMP-10): > 100 nM
B10: P1406 (hActRIIB L14E, L33W, 19 aa linker, IgG1-DL) (Fc fusion)
chain: ETRECIYYNANWEEERTNQSGLERCEGEQDKRWHCYASWRNSSGTIELVKKGCWLDDFNCYDRQECVATEENPQVYFCCCEGNFCNERFTHLPEAGGPEVTYEPPPTGGGGSGGGGSGGGGSGG[human IgG1 Fc and a few adjoining residues left out]

IC50, TGFβ-reporter HEK293 cell-based neutralization assay (activin A): 0.56 nM
IC50, TGFβ-reporter HEK293 cell-based neutralization assay (activin B): 2.7 nM
IC50, TGFβ-reporter HEK293 cell-based neutralization assay (GDF-8): 0.23 nM
IC50, TGFβ-reporter HEK293 cell-based neutralization assay (GDF-11): 0.6 nM
B12: P1371 (hActRIIB L33W, 14 aa linker, IgG1 Y-DL) (Fc fusion)
chain: ETRECIYYNANWELERTNQSGLERCEGEQDKRWHCYASWRNSSGTIELVKKGCWLDDFNCYDRQECVATEENPQVYFCCCEGNFCNERFTHLPEAGGPEVTYEPPPTGGGGSGGGGSGGGG[human IgG1 Fc with changes left out]

More lines, now with the values behind:

B2: P751 (hActRIIB L33Y, 14 aa linker, IgG1-DL) (Fc fusion)
chain: ETRECIYYNANWELERTNQSGLERCEGEQDKRYHCYASWRNSSGTIELVKKGCWLDDFNCYDRQECVATEENPQVYFCCCEGNFCNERFTHLPEAGGPEVTYEPPPTGGGGSGGGGSGG[human IgG1 Fc and a few adjoining residues left out]
IC50, TGFβ-reporter HEK293 cell-based neutralization assay (activin A): 0.82 nM
IC50, TGFβ-reporter HEK293 cell-based neutralization assay (activin B): 0.8 nM
IC50, TGFβ-reporter HEK293 cell-based neutralization assay (GDF-8): 0.3 nM
IC50, TGFβ-reporter HEK293 cell-based neutralization assay (GDF-11): 0.25 nM
IC50, BMP-reporter HepG2 cell-based neutralization assay (BMP-9 [1]): 18 nM
IC50, BMP-reporter HepG2 cell-based neutralization assay (BMP-10): 2.4 nM

B3: P750 (hActRIIB L33R, 14 aa linker, IgG1-DL) (Fc fusion)
chain: ETRECIYYNANWELERTNQSGLERCEGEQDKRRHCYASWRNSSGTIELVKKGCWLDDFNCYDRQECVATEENPQVYFCCCEGNFCNERFTHLPEAGGPEVTYEPPPTGGGGSGGGGSGG[human IgG1 Fc and a few adjoining residues left out]
IC50, TGFβ-reporter HEK293 cell-based neutralization assay (activin A): 0.76 nM
IC50, TGFβ-reporter HEK293 cell-based neutralization assay (activin B): 1 nM
IC50, TGFβ-reporter HEK293 cell-based neutralization assay (GDF-8): 0.58 nM
IC50, TGFβ-reporter HEK293 cell-based neutralization assay (GDF-11): 0.51 nM
IC50, BMP-reporter HepG2 cell-based neutralization assay (BMP-9 [1]): 21 nM
IC50, BMP-reporter HepG2 cell-based neutralization assay (BMP-10): 4.7 nM

B5: P1185 (hActRIIB L33Y G27E, 14 aa linker, IgG1-DL) (Fc fusion)
chain: ETRECIYYNANWELERTNQSGLERCEEEQDKRYHCYASWRNSSGTIELVKKGCWLDDFNCYDRQECVATEENPQVYFCCCEGNFCNERFTHLPEAGGPEVTYEPPPTGGGGSGGGGSGG[human IgG1 Fc and a few adjoining residues left out]
IC50, TGFβ-reporter HEK293 cell-based neutralization assay (activin A): 1 nM
IC50, TGFβ-reporter HEK293 cell-based neutralization assay (activin B): 5.2 nM
IC50, TGFβ-reporter HEK293 cell-based neutralization assay (GDF-8): 0.33 nM
IC50, TGFβ-reporter HEK293 cell-based neutralization assay (GDF-11): 0.44 nM
IC50, BMP-reporter HepG2 cell-based neutralization assay (BMP-9 [1]): 791 nM
IC50, BMP-reporter HepG2 cell-based neutralization assay (BMP-10): 2.3 nM

B7: P1373 (hActRIIB L33W, 19 aa linker, IgG1-DL) (Fc fusion)
chain: ETRECIYYNANWELERTNQSGLERCEGEQDKRWHCYASWRNSSGTIELVKKGCWLDDFNCYDRQECVATEENPQVYFCCCEGNFCNERFTHLPEAGGPEVTYEPPPTGGGGSGGGGSGGGGSGG[human IgG1 Fc and a few adjoining residues left out]
fold lower BMP-9 neutralization potency than P75 (BMP-9 [2]): > 100 fold
IC50, TGFβ-reporter HEK293 cell-based neutralization assay (activin A): 0.53 nM
IC50, TGFβ-reporter HEK293 cell-based neutralization assay (activin B): 2.9 nM
IC50, TGFβ-reporter HEK293 cell-based neutralization assay (GDF-8): 0.4 nM
IC50, TGFβ-reporter HEK293 cell-based neutralization assay (GDF-11): 0.46 nM
IC50, BMP-reporter HepG2 cell-based neutralization assay (BMP-9 [1]): > 1000 nM
IC50, BMP-reporter HepG2 cell-based neutralization assay (BMP-10): > 100 nM

B9: P1389 (hActRIIB G27T, L33W, 19 aa linker, IgG1-DL) (Fc fusion)
chain: ETRECIYYNANWELERTNQSGLERCETEQDKRWHCYASWRNSSGTIELVKKGCWLDDFNCYDRQECVATEENPQVYFCCCEGNFCNERFTHLPEAGGPEVTYEPPPTGGGGSGGGGSGGGGSGG[human IgG1 Fc and a few adjoining residues left out]
IC50, TGFβ-reporter HEK293 cell-based neutralization assay (activin A): 0.52 nM
IC50, TGFβ-reporter HEK293 cell-based neutralization assay (activin B): 1 nM
IC50, TGFβ-reporter HEK293 cell-based neutralization assay (GDF-8): 0.4 nM
IC50, TGFβ-reporter HEK293 cell-based neutralization assay (GDF-11): 0.39 nM
IC50, BMP-reporter HepG2 cell-based neutralization assay (BMP-9 [1]): > 100 nM
IC50, BMP-reporter HepG2 cell-based neutralization assay (BMP-10): > 100 nM

B11: P1409 (hActRIIB L14Q, L33W, 19 aa linker, IgG1-DL) (Fc fusion)
chain: ETRECIYYNANWEQERTNQSGLERCEGEQDKRWHCYASWRNSSGTIELVKKGCWLDDFNCYDRQECVATEENPQVYFCCCEGNFCNERFTHLPEAGGPEVTYEPPPTGGGGSGGGGSGGGGSGG[human IgG1 Fc and a few adjoining residues left out]
IC50, TGFβ-reporter HEK293 cell-based neutralization assay (activin A): 0.55 nM
IC50, TGFβ-reporter HEK293 cell-based neutralization assay (activin B): 1.9 nM
IC50, TGFβ-reporter HEK293 cell-based neutralization assay (GDF-8): 0.48 nM
IC50, TGFβ-reporter HEK293 cell-based neutralization assay (GDF-11): 0.39 nM
IC50, BMP-reporter HepG2 cell-based neutralization assay (BMP-9 [1]): > 1000 nM
IC50, BMP-reporter HepG2 cell-based neutralization assay (BMP-10): > 100 nM
